# Measurements published in PubChem BioAssay AID1671193 (National Center for Advancing Translational Sciences (NCATS), 2021).
# Hit rate of the full screen: of about 150,000 compounds, about 180 (0.12%) were called active. Inconclusive means that the source gave no clear call. Such entries were picked first, then a sample of the others. Calls follow the shape of the dose curve; as a rule, active = well fitted cell-killing curve with a large enough effect; inconclusive = small, poorly fitted or top-dose-only effect, or effect the other way; inactive = flat fitted curve, though single readings scatter. Potencies of inconclusive entries are doubtful fits and often do not repeat.
# Assay: GF-AFC viability counterscreen for inhibitors of alpha-synuclein gene (SNCA) expression; also: nearly all actives have a fitted effect of over 30% in size
# Details: HEK-293-SNCA-luc viability, GF-AFC fluorescence, 24 h; series mostly up to 57.1 µM
# Outline: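 HEK-293-SNCA-luc cells (1500/well) plated 24 h, then exposed 24 h to a dilution series; GF-AFC added 30 min at 37C, fluorescence 405/540 nm; normalised to medium-only and DMSO wells, Hill fit.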
# Potency is read from the fitted curve at half-maximal effect; tags tell the direction and shape of the fitted curve.
row,Compound,Potency
1,O=C1N(CCc2ccccc2)CCOC12CCN(Cc1ccc(F)c(Cl)c1)CC2,"inconclusive: 35.5 µM [cytotoxic, single point]"
2,COc1ccc(-c2ccnc(N[C@H]3CO[C@H]4[C@@H]3OC[C@H]4OC(=O)Nc3cccc(C(C)=O)c3)n2)cc1,"inconclusive: 31.6 µM [cytotoxic, single point]"
3,Clc1cccc(-c2csc(-c3nc(-c4ccc(Br)s4)cs3)n2)c1,inactive
4,COc1cc2nc(-c3cc(F)ccc3O)nc(N[C@@H]3CNC[C@H]3C(C)(C)O)c2cc1OC,"inconclusive: 37.7 µM [cytotoxic, single point]"
5,O=C(CCC1CCCN(S(=O)(=O)c2ccccc2F)C1)NCCN1CCOCC1 (stereo not given),inactive
6,Fc1ccc(-c2ccc3ncc(Nc4ccnc(N5CCOCC5)c4)n3n2)cc1,"inconclusive: 25.1 µM [cytotoxic, single point]"
7,O=C(CNC(=O)c1ccc(-c2cnc3ccccc3c2)cc1)NCc1ccc(Cl)cc1,"inconclusive: 39.8 µM [rising, single point]"
8,Cc1cc(OCC(=O)c2ccc3c(c2)N(CC(=O)NCC2CC2)C(=O)CO3)ccc1Cl,"inconclusive: 25.1 µM [cytotoxic, single point]"
9,CCCC(O)c1nc2ccccc2n1CCCCOc1ccc(OC)cc1 (stereo not given),"inconclusive: 39.8 µM [cytotoxic, single point]"
10,CCCOc1cccc(C(=O)Nc2ccc(-c3nc4ccccc4s3)c(Cl)c2)c1,inactive
11,Cc1cc(C)cc(C(=O)N2CC(C(=O)NCCc3ccncc3)C3(CCOCC3)C2)c1 (stereo not given),"inconclusive: 39.8 µM [cytotoxic, single point]"
12,CCCS(=O)(=O)N(C)C1CCc2nn(CC3CC3)c(=O)n2CC1 (stereo not given),"inconclusive: 6.31 µM [cytotoxic, full curve, poor fit]"
13,COc1ccc(-c2cc(N3CCN(C(=O)c4cc(F)ccc4Cl)CC3)n[nH]2)cc1,"inconclusive: 28.2 µM [cytotoxic, single point]"
14,Cc1cc(C)cc(C(=O)N2CCN(C3CCN(CCc4ccccc4)C3=O)CC2)c1 (stereo not given),"inconclusive: 3.55 µM [cytotoxic, partial curve, poor fit]"
15,CC(=O)Nc1ccccc1-c1cn(C)c(=O)n2cc(COc3ccc(Cl)cc3)nc12,"inconclusive: 28.2 µM [cytotoxic, partial curve, poor fit]"
16,COc1ccc(NC(=O)c2ccc3c(c2)c(C)c(C)n3Cc2ccc(F)cc2)cc1,"inconclusive: 7.94 µM [cytotoxic, partial curve, poor fit]"
17,O=C(CCC1CCCC1)N1CCCC(Cc2nc(C3CCOCC3)no2)C1 (stereo not given),"inconclusive: 22.4 µM [cytotoxic, partial curve, poor fit]"
18,Cc1ccc(Nc2ccnc(N3CCC(NC(=O)c4ccccc4C)CC3)n2)cc1,"inconclusive: 22.4 µM [cytotoxic, single point]"
19,Cc1ccc(-c2nc3cnccn3c2NCCC(=O)N2CCCCC2)cc1,"inconclusive: 12.6 µM [rising, partial curve]"
20,COC[C@@H]1CN(C(=O)CCn2nc(C)cc2C)C[C@H]1c1ccncc1,"inconclusive: 3.55 µM [cytotoxic, single point]"

row,Compound,Potency
1,CN(C)S(=O)(=O)c1ccc2c(c1)N(CC(=O)N1CCCCC1)CCS2,"inconclusive: 7.94 µM [cytotoxic, partial curve]"
2,Cc1ccc(-c2nnc(Nc3ccc(Cl)cc3)c3ccccc23)cc1S(=O)(=O)N1CCOCC1,"inconclusive: 0.316 µM [rising, full curve, poor fit]"
3,COc1ccccc1N1CCN(c2nc3ccc(C)cc3nc2-n2nc(C)cc2C)CC1,inactive
4,CN(C(=O)c1ccc2c(c1)N(Cc1ccccc1F)C(=O)c1ccccc1S2)C1CCCCC1,"inconclusive: 39.8 µM [cytotoxic, single point]"
5,Cc1noc(C)c1CN1CC(C(=O)NCc2ccncc2)C2(CCOCC2)C1 (stereo not given),"inconclusive: 3.98 µM [cytotoxic, single point]"
6,Cc1cc(Nc2sc(C(=O)c3ccc(F)cc3)c(N)c2C(=O)Nc2ccc(F)cc2)ccc1Cl,"inconclusive: 31.6 µM [cytotoxic, single point]"
7,COc1cccc(-n2c(=O)c3sc4ccccc4c3n(CC(=O)Nc3ccc(F)cc3F)c2=O)c1,"inconclusive: 0.631 µM [cytotoxic, full curve, poor fit]"
8,COc1ccc2nc([C@H]3CCN(Cc4ccccc4)C3)[nH]c2c1,inactive
9,COc1cccc(-c2noc(CC3CCN(C(=O)c4ccc(F)c(F)c4)CC3)n2)c1,"inconclusive: 12.6 µM [rising, partial curve, poor fit]"
10,CCOCCCn1c(=N)c(S(=O)(=O)c2ccc(C)cc2)cc2c(=O)n3ccccc3nc21,"inconclusive: 6.31 µM [rising, full curve, poor fit]"
11,Cc1cccc(-c2nc3c4ccccc4nc(NCc4ccccc4Cl)n3n2)c1,inactive
12,Cc1cnc(CC2CCN(S(=O)(=O)c3ccccc3)CC2)n1Cc1ccccc1,"inconclusive: 4.47 µM [cytotoxic, single point]"
13,COCCOCC(=O)N1CC(Oc2ccc(-c3noc(-c4ccccc4)n3)cc2)C1,inactive
14,O=c1oc2cc(O)ccc2cc1-c1nnc(Nc2ccccc2F)s1,"inconclusive: 2.51 µM [rising, full curve, poor fit]"
15,COc1ccc(C(=O)N2CCC(Oc3ccc(-c4noc(C(C)C)n4)cc3)C2)cc1 (stereo not given),inactive
16,COc1ccc(NC(=O)N2CCCC2c2nncn2C2CCCC2)c(OC)c1 (stereo not given),inactive
17,Cc1cn2c(=O)cc(COC(=O)c3cccc(NC(=O)COc4ccccc4C)c3)nc2s1,"inconclusive: 17.8 µM [cytotoxic, partial curve, poor fit]"
18,COc1ccc(-c2nc(C3CC3)nc3c2CN(C(=O)c2ccccn2)CC3)cc1,"inconclusive: 4.47 µM [cytotoxic, single point]"
19,COc1ccc2[nH]cc(CCNC(=O)C3Cn4cccc4C(=O)N3C)c2c1 (stereo not given),inactive
20,COc1ccccc1N1CCN([C@@H]2[C@H](O)[C@H](CO)O[C@@H]2CN(Cc2ccc(F)cc2)Cc2ccc(F)cc2)CC1,"inconclusive: 31.6 µM [cytotoxic, single point]"
